Results as given in PMC9163754.
Numbering of substitutions follows the chain as printed. These are yes or no findings as the source states them, for the method shown. In cells and extracts the contact can be indirect. Some results given as binding are weak or reduced against the parent protein; the word gives no strength. For some of these results: Tags and fused reporters may be left off the sequences shown.

Chains of the proteins cited; added tags and fusions are not shown.
UniProt Q64261: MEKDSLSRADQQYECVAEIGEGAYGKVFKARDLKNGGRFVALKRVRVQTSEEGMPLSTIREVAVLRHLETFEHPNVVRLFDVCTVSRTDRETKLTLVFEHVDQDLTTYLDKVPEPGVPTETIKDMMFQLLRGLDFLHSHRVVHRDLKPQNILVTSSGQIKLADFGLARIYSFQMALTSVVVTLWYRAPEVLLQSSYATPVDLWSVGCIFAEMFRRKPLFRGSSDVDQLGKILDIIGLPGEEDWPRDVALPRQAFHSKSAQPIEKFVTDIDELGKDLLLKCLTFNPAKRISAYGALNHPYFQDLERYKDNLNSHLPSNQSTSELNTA

T1: GFP-FERM-R312A/K313A (UniProt P34152)
T1 sequence: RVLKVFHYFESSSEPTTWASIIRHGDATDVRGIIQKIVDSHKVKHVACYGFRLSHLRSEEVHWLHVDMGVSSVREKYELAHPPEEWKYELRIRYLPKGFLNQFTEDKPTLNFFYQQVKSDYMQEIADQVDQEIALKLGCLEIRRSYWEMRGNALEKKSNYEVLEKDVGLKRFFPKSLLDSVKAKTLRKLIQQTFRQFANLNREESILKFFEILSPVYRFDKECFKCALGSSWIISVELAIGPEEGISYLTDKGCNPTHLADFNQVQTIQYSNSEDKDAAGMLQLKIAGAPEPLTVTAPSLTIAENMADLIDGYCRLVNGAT

T2: GFP-FERM-WT (UniProt P34152)
T2 sequence: T1 sequence with A278R, A279K

T3: cyclin-dependent kinase 4 (CDK4) (mouse (endogenous in B16F10)) (UniProt P30285)
T3 sequence: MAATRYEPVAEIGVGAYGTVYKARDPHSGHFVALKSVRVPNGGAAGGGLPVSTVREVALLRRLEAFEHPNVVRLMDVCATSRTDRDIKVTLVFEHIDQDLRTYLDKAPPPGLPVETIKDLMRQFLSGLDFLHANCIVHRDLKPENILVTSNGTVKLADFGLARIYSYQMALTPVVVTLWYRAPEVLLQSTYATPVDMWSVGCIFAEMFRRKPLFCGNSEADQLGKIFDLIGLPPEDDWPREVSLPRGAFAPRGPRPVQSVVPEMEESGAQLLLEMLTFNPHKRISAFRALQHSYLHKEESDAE

B1: cyclin-dependent kinase 4 (CDK4) (protein, UniProt P30285 1-303)
chain: T3 sequence
B2: Myc-FERM-WT (domain or fragment, UniProt P34152 35-355)
chain: T1 sequence with A278R, A279K

Experiments:
GFP-FERM-R312A/K313A = molecular target: T1, GFP-FERM-R312A/K313A; experiment: co-IP; GFP-IP from B16F10 cells transfected for 24 h with GFP-FERM-WT, GFP-FERM-NLM or GFP-FERM-R312A/K313A; immunoblot for endogenous CDH1, CDK4 and CDK6
GFP-FERM-WT = molecular target: T2, GFP-FERM-WT; experiment: as above
[1] = molecular target: Focal adhesion kinase (FAK) (mouse (endogenous in B16F10)) (UniProt P34152); experiment: condition: only vehicle-treated cells, without FAK inhibitor; co-IP; FAK-IP from lysates of vehicle-treated B16F10 cells (no FAK inhibitor), endogenous proteins; immunoblot
[2] = molecular target: Focal adhesion kinase (FAK) (mouse (endogenous in B16F10)) (UniProt P34152); experiment: co-IP; FAK-IP from B16F10 lysates, endogenous proteins; cells treated with FAK-I (PF-271, 2.5 uM) with or without MG-132 (10 uM) for 6 h; 1% Triton X-100, 50 mM Hepes, 150 mM NaCl buffer, overnight at 4 °C; immunoblot
[3] = molecular target: CDC homolog 1 (CDH1) (mouse (endogenous in B16F10)) (UniProt Q9R1K5); experiment: co-IP; B16F10 cells transduced with increasing MOI of Myc-FERM-WT or Myc-FERM-NLM adenovirus; CDH1-IP by the text (Myc-IP by the legend); immunoblot for CDH1, CDK4, CDK6 and Myc
[4] = molecular target: T3, cyclin-dependent kinase 4 (CDK4) (mouse (endogenous in B16F10)); experiment: as above
[5] = molecular target: cyclin-dependent kinase 6 (CDK6) (mouse (endogenous in B16F10)) (UniProt Q64261); experiment: as above

Binder | binding (GFP-FERM-R312A/K313A) | binding (GFP-FERM-WT) | binding [1] | binding [2] | binding [3] | binding [4] | binding [5]
B1 | binds | binds | no binding | binds | – | – | –
B2 | – | – | – | – | binds | binds | binds
